Some of the results follow. Sequences were assembled here from the parent chain. Values near 0.05 are background.
B1: TEV protease; numbered along this chain (parent)
chain: MGESLFKGPRDYNPISSSICHLTNESDGHTTSLYGIGFGPFIITNKHLFRRNNGTLVVQSLHGVFKVKDTTTLQQHLVDGRDMIIIRMPKDFPPFPQKLKFREPQREERICLVTTNFQTKSMSSMVSDTSCTFPSGDGIFWKHWIQTKDGQCGSPLVSTRDGFIVGIHSASNFTNTNNYFTSVPKNFMELLTNQEAQQWVSGWRLNADSVLWGGHKVFMVKPEEPFQPVKEATQL

Variants of: B1
Assay: raw area under fraction-flipped curve 0-4 h after induction (AUC4h, not background-subtracted), DNA-recorder readout of cleavage of the substrate (dimensionless); higher = more cleavage of the substrate by the protease variant
Conditions: temperature: 34 °C; time window: 0-4 h after rhamnose induction
Description: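 In vivo DNA recorder in E. coli TOP10(DE3) ΔrhaA at 34 °C. Each TEVp single-site mutant (parent TEVp 0) is paired with a single-site variant of the 7-mer TEVs (canonical ENLYFQ|S). The substrate sits between flexible linkers in a Bxb1-sfGFP-TEVs-SsrA fusion, so cleavage stabilises Bxb1 and speeds flipping of a recombination array, read by NGS. The value is the raw area under the fraction-flipped curve over 0-4 h after rhamnose induction (AUC4h), with ≥20 reads per time point. It is not background-subtracted; inactive controls average about 0.047.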
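Further: Bxb1 expression induced with 0.2% (w/v) L-rhamnose at OD600 near 0.5, cultures sampled hourly, flipped fraction per protease–substrate barcode pair counted by paired-end Illumina sequencing.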

| Variant | area with substrate ENLAFQS | area with substrate ENLCFQS | area with substrate ENLDFQS | area with substrate ENLEFQS | area with substrate ENLHFQS | area with substrate ENLLFQS | area with substrate ENLMFQS | area with substrate ENLPFQS | area with substrate ENLRFQS | area with substrate ENLSFQS | area with substrate ENLVFQS | area with substrate ENLFFQS | area with substrate ENLGFQS | area with substrate ENLIFQS | area with substrate ENLKFQS | area with substrate ENLNFQS | area with substrate ENLQFQS | area with substrate ENLWFQS |
| --- | --- | --- | --- | --- | --- | --- | --- | --- | --- | --- | --- | --- | --- | --- | --- | --- | --- | --- |
| MGESLFKGPRDYNPISSSICHLTNESDGHTTSLYGIGFGPFIITNKHLFRRNNGTLVVQSLHGVFKVKDTTTLQQHLVDGRDMIIIRMPKDFPPFPQKLKFREPQREERICLVTTNFQTKSMSSMVSDTSCTFPSGDGIFWKHWIQTKDGQCGSPLVSTRDGFIVGIHSASNFTNTNNYFTSVPKNFMELLTNQEAQQWVSYWRLNADSVLWGGHKVFMVKPEEPFQPVKEATQL [G202Y] | 0.0609 | 0.0569 | 0.0547 | 0.0693 | 0.0566 | 0.0645 | 0.0754 | 0.0634 | 0.0622 | 0.0066 | 0.0595 | – | – | – | – | – | – | – |
| MGESLFKGPRDYNPISSSICHLTNESDGHTTSLYGIGFGPFIITNKHLFRRNNGTLVVQSLHGVFKVKDTTTLQQHLVDGRDMIIIRMPKDFPPFPQKLKFREPQREERICLVTTNFQTKSMSSMVSDTSCTFPSGDGIFWKHWIQTKDGQCGSPLVSTRDGFIVGIHSASNFTNTNNYFTSVPKNFMELLTNQEAQQWVSGWCLNADSVLWGGHKVFMVKPEEPFQPVKEATQL [R204C] | 0.043 | 0.0772 | 0.0674 | – | 0.0572 | 0.0889 | 0.101 | 0.054 | 0.0608 | 0.0567 | 0.102 | 0.0819 | 0.069 | 0.0862 | 0.0998 | 0.0687 | 0.0967 | 0.0678 |
| MGESLFKGPRDYNPISSSICHLTNESDGHTTSLYGIGFGPFIITNKHLFRRNNGTLVVQSLHGVFKVKDTTTLQQHLVDGRDMIIIRMPKDFPPFPQKLKFREPQREERICLVTTNFQTKSMSSMVSDTSCTFPSGDGIFWKHWIQTKDGQCGSPLVSTRDGFIVGIHSASNFTNTNNYFTSVPKNFMELLTNQEAQQWVSGWRLSADSVLWGGHKVFMVKPEEPFQPVKEATQL [N206S] | 0.0705 | – | – | 0.0403 | 0.0699 | – | – | 0.0367 | 0.0716 | 0.0649 | – | 0.0889 | 0.0702 | – | 0.0786 | 0.0619 | 0.0735 | – |
| MGESLFKGPRDYNPISSSICHLTNESDGHTTSLYGIGFGPFIITNKHLFRRNNGTLVVQSLHGVFKVKDTTTLQQHLVDGRDMIIIRMPKDFPPFPQKLKFREPQREERICLVTTNFQTKSMSSMVSDTSCTFPSGDGIFWKHWIQTKDGQCGSPLVSTRDGFIVGIHSASNFTNTNNYFTSVPKNFMELLTNQEAQQWVSGWRLNADFVLWGGHKVFMVKPEEPFQPVKEATQL [S209F] | 0.0594 | 0.0809 | 0.0541 | 0.0594 | 0.0793 | 0.074 | – | 0.0569 | – | – | – | 0.112 | 0.0533 | 0.0973 | 0.0916 | 0.0592 | 0.0867 | – |
| MGESLFKGPRDYNPISSSICHLTNESDGHTTSLYGIGFGPFIITNKHLFRRNNGTLVVQSLHGVFKVKDTTTLQQHLVDGRDMIIIRMPKDFPPFPQKLKFREPQREERICLVTTNFQTKSMSSMVSDTSCTFPSGDGIFWKHWIQTKDGQCGSPLVSTRDGFIVGIHSASNFTNTNNYFTSVPKNFMELLTNQEAQQWVSGWRLNADSCLWGGHKVFMVKPEEPFQPVKEATQL [V210C] | 0.0638 | 0.0455 | – | 0.0561 | 0.0651 | 0.0576 | – | 0.0551 | 0.0715 | 0.0477 | 0.064 | 0.0728 | 0.0689 | 0.0743 | 0.0722 | 0.0605 | 0.0653 | 0.0653 |
| MGESLFKGPRDYNPISSSICHLTNESDGHTTSLYGIGFGPFIITNKHLFRRNNGTLVVQSLHGVFKVKDTTTLQQHLVDGRDMIIIRMPKDFPPFPQKLKFREPQREERICLVTTNFQTKSMSSMVSDTSCTFPSGDGIFWKHWIQTKDGQCGSPLVSTRDGFIVGIHSASNFTNTNNYFTSVPKNFMELLTNQEAQQWVSGWRLNADSLLWGGHKVFMVKPEEPFQPVKEATQL [V210L] | 0.061 | 0.0717 | 0.0687 | 0.0525 | 0.0571 | 0.0609 | 0.0677 | – | 0.0619 | 0.0186 | 0.073 | 0.0707 | – | – | 0.0714 | 0.0603 | 0.0627 | 0.0703 |
| MGESLFKGPRDYNPISSSICHLTNESDGHTTSLYGIGFGPFIITNKHLFRRNNGTLVVQSLHGVFKVKDTTTLQQHLVDGRDMIIIRMPKDFPPFPQKLKFREPQREERICLVTTNFQTKSMSSMVSDTSCTFPSGDGIFWKHWIQTKDGQCGSPLVSTRDGFIVGIHSASNFTNTNNYFTSVPKNFMELLTNQEAQQWVSGWRLNADSQLWGGHKVFMVKPEEPFQPVKEATQL [V210Q] | 0.0605 | – | 0.0573 | 0.069 | 0.06 | 0.0524 | 0.0776 | 0.0662 | 0.0598 | – | 0.0656 | 0.0642 | 0.0664 | 0.0764 | 0.0707 | 0.0682 | 0.0707 | 0.06 |
| MGESLFKGPRDYNPISSSICHLTNESDGHTTSLYGIGFGPFIITNKHLFRRNNGTLVVQSLHGVFKVKDTTTLQQHLVDGRDMIIIRMPKDFPPFPQKLKFREPQREERICLVTTNFQTKSMSSMVSDTSCTFPSGDGIFWKHWIQTKDGQCGSPLVSTRDGFIVGIHSASNFTNTNNYFTSVPKNFMELLTNQEAQQWVSGWRLNADSSLWGGHKVFMVKPEEPFQPVKEATQL [V210S] | 0.0506 | 0.0664 | 0.0595 | 0.0562 | 0.0584 | 0.0568 | – | 0.0793 | 0.0648 | 0.0138 | – | 0.0642 | – | 0.0599 | 0.0629 | 0.0524 | 0.0688 | – |

From the supplement of paper PMC12217912
